The list shows a part of the results. At the low end of the ranking, values are background and their order means little.
Biological target: SIX1 homeodomain (reference allele) (UniProt Q15475)
Test: universal protein binding microarray
Conditions: Universal all-10-mer PBM (8x60K, AMADID 030236), 300 nM GST-tagged protein, Alexa Fluor 488 anti-GST; buffer, salt, pH and temperature not stated; high values mean tight binding; most listed sequences are background and not binding sites; double strand, one strand shown

Sequence	binding signal [E-score]
AGCCGGAA	-0.0791
CATTCCCA	-0.139
GATTGAAC	-0.00835
ATATCCCA	0.418
AACGAGTG	-0.0175
CTACCATC	-0.109
CAACCGCG	9.5e-05
AAAAACCC	-0.167
GTAGAAGA	0.115
ACGTGGAT	0.284
AGATACTA	0.316
ATACTTCC	0.241
AACTCACT	-0.169
CAAGCGGG	0.0208
CGCGAGGA	-0.0718
GAGGCTTA	-0.16
TAAACGTA	0.0346
GTTTCCCA	-0.122
ACAAAAAC	-0.277
GCAGTGAC	-0.257
CGCCTGTA	-0.124
ATCTTATC	0.228
ATGCAAGC	-0.0563
ATGACTCC	-0.0145
GACGTAAC	-0.181

Sequence	binding signal [E-score]
ACCTAGGT	0.0332
ATTCGTAA	-0.199
GCGACAGA	0.0181
ACGAGCGA	0.0308
GCACGCCC	-0.187
CGGCAAAG	-0.107
ACGAGCAG	-0.0488
AGGTTCCA	-0.178
ATGTGCAG	-0.104
ACTGTGCC	-0.255
ACTGATCA	0.181
AACGCCGT	-0.172
AATACGAC	0.18
ACGATAGC	0.217
ATATCGTA	0.402
AATAAGAC	-0.0461
GGAGAATA	0.235
AGACGCAT	0.136
ACACATCT	0.118
ACTGTGAT	0.211
ATCAGCAA	0.0994
GTAGTGAA	-0.079
ATGTGCGG	0.0119
CCATAACC	-0.0643
TATTTTCA	-0.067

Sequence	binding signal [E-score]
GCTAATCA	-0.0282
CACCCGAA	0.193
CCTTAGGA	0.114
CATCATGC	-0.027
GACGATGA	0.00309
ACACATAA	-0.137
AAACTTTC	-0.265
CACAAGCG	-0.142
AGCCGTGA	0.0895
AGTTCGTC	-0.159
AAGTTTCT	-0.249
AATCGAGG	-0.0855
CGTGAGCC	0.0957
GCGGGGAC	-0.034
ACAGTGTG	-0.178
AGAATGAG	0.00948
GCAATTAC	-0.178
CATTCCTA	0.0158
CGCTCCGC	-0.278
AAAGCACC	-0.273
ACTTCATA	0.00632
CCACCAGC	-0.0398
AGAGCTTG	-0.152
GGTCCCTA	-0.0369
CTCTTTAA	-0.239

Sequence	binding signal [E-score]
AAGCACCA	-0.173
GCTAGCAC	0.0172
CGGCTGGC	-0.176
CAACTATC	0.168
AGGGGTGC	-0.108
GCTATATA	0.253
CATTTTGC	-0.205
AGCGGTGC	-0.181
AATTTTCA	-0.0275
CGTAGCGC	-0.251
CACATATC	0.404
CAAACCGA	0.0141
TAATGGGA	-0.227
CGCCGCCC	-0.105
CACGGGAG	-0.203
CCAACGAC	-0.266
GTCGTCAC	-0.211
GGCTGGGA	0.0237
ACCCGTCT	0.0871
GAAATTTC	-0.399
ATTCTCAC	0.106
ATGCGCGA	-0.0746
TGACACCA	0.466
AAGAAGGC	-0.137
CTCTGACC	-0.253

Sequence	binding signal [E-score]
AGTAATTC	-0.146
CCGGCAAC	0.00139
CAACTTCA	-0.164
ACCCATAT	0.379
GACGAATA	0.0237
CAGAGGAC	-0.0905
CCGGCTCG	0.15
CCGCCTTC	-0.0903
CGGAGGCC	-0.125
AAGTATGT	-0.148
TAATCGAA	-0.187
GCGCTGAC	-0.287
CCTCTATC	0.0339
AACTCTTA	-0.133
CATGCCGA	-0.0331
ACGTGGTC	-0.168
CACCTTAG	-0.0539
ACACAGTA	0.0199
GGACGCAC	-0.351
ATAACACC	0.301
AGCGCCTG	-0.178
GACATCTA	0.0667
CTTGAGTA	0.103
CTTGCCTA	-0.181
GCCCACCA	0.0599

Sequence	binding signal [E-score]
CATTGATA	0.391
AAAGTAAA	-0.255
ACTGAACT	-0.167
ACCGATTC	0.029
TAACAGCA	-0.172
AATACACA	0.169
GCAACCGC	-0.255
TGATCGCA	0.171
ACCTGGTC	-0.0391
ATAATCAC	0.0901
AGGGGCTC	0.0609
CATCTGAC	0.152
ACAAGTTG	-0.0877
GGTCTAAC	0.0232
GACCAGGC	-0.108
CTCATACA	0.0921
GCTCGAGC	0.12
AGCCCATG	-0.146
AGATTAGA	0.00566
ACTGCAAC	-0.116
ATCGCTCC	0.0652
AATGCAAA	-0.035
ACAGCGCT	0.0172
CGTCTAAG	0.193
ATCAAGAG	0.139

Sequence	binding signal [E-score]
CTCATAGC	-0.136
AATGATCC	0.424
ACTCGGAT	0.38
GTGGCTGA	0.0821
ACTTCCAA	-0.155
GCACTAAA	-0.139
GAATTGTA	-0.0626
GGGAGAAA	-0.173
GCGCTCGA	-0.192
CTCGGGCC	-0.0621
AGGTATAT	0.357
ATCAGAAC	0.0329
CACCATGC	0.113
AGATATCG	0.434
GAAGCAAC	-0.2
GACCAGCA	-0.244
TAGGGCCA	-0.229
ATGGAACG	-0.232
CATCACCC	0.115
AAAATCTA	-0.0612
AGTCAGGA	-0.026
AAACGCAC	-3.5e-05
AAAGCGGA	0.101
AATTTATC	0.00878
TAAGAATA	-0.0539

Sequence	binding signal [E-score]
CGACTAGC	-0.0674
GCCATCGC	0.0318
GACCCACA	-0.043
ACAACGCT	-0.246
AAATATAC	0.237
AGAGAGAA	-0.135
TCATTGAA	0.0929
ATTGCACC	0.00256
ATAAGCCC	-0.0855
CGGGGTAG	0.22
GCTAAACC	-0.0327
CCCACCCC	0.2
ACATAGTA	0.205
CCGGTCGA	-0.156
AAGTGACA	0.0438
AACTCGGA	-0.128
ATCCTCGC	0.279
ATACTGTG	0.226
CCTAGCCA	-0.0901
GATGTAGA	0.0155
AAATCACT	-0.171
GGCAACCC	-0.135
CAATGTGC	-0.0955
CTGATACA	0.404
GAGAGCGA	0.113

Sequence	binding signal [E-score]
AAGCGTCA	-0.185
ACTCGCAG	-0.134
GAGCCTGC	-0.00779
ACCAACGT	-0.0812
AGCGCAAA	-0.124
GAGGGGGC	-0.211
AAAGTGGC	-0.216
CAGATGTC	-0.13
CCAGTTGC	-0.0802
GGGAACCC	0.19
GAAACCTA	0.0398
GGTAAAGA	0.0345
ATAGCGTC	0.0199
GTGTGCCA	-0.177
GCTATAGC	-0.0047
GAGTACGA	0.049
GGGCTGTA	-0.0771
GCCTTTCC	-0.198
ACTATAGG	0.0552

Reference: article PMC10668032
